# Measurements published in article PMC4336329 (PLoS ONE, 2015).
# Among all 310,000 compounds or so, about 14,000 (4.5%) showed an effect of 50% or more. Effects have a minus sign here. The list shows a part of the results.
# Molecular target: human ether-à-go-go-related gene (hERG) potassium channel (human, UniProt Q12809)
# Experiment: primary screen, population patch clamp on CHO cells stably expressing hERG
# 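Also: peak tail current of the secondary pulse compared with the same well before compound.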
# Chain of human ether-à-go-go-related gene (hERG) potassium channel (Q12809 whole entry, looked up): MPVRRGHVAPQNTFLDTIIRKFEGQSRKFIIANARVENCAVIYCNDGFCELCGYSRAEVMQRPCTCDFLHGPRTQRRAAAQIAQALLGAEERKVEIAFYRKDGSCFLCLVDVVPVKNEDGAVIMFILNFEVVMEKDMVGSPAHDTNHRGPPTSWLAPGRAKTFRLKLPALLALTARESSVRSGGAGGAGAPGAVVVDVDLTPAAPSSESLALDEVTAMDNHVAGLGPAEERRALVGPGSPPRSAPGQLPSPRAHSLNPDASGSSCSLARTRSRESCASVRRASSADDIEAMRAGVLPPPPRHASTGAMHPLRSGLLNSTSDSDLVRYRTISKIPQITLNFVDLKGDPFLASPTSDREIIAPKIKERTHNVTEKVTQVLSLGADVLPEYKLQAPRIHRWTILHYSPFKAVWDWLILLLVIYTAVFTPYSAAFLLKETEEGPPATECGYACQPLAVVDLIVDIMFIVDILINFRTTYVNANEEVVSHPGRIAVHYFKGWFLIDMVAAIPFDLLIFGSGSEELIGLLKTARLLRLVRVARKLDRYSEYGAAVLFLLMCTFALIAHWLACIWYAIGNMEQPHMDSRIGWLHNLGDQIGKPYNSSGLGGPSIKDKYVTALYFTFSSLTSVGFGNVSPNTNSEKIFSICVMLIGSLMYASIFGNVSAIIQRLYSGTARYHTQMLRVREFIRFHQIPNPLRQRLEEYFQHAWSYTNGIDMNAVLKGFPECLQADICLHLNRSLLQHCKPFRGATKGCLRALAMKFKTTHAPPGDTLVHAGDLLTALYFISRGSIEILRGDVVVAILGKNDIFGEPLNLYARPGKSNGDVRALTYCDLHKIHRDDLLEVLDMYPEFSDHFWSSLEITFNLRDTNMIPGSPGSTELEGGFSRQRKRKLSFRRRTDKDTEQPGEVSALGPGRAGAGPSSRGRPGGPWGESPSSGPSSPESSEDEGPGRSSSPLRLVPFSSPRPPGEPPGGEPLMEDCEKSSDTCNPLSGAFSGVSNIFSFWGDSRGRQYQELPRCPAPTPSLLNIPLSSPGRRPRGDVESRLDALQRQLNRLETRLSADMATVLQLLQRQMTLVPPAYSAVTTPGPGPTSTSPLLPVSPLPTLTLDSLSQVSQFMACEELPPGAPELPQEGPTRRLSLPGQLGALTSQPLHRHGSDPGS
row,Compound,"hERG current change (%, negative = inhibition) at 10uM"
1,COc1ccc(C(=O)N2N=C(c3cccs3)CC2c2ccccc2O)cc1 (stereo not shown),-18.3%
2,COc1ccc(C2C(C#N)=C(N)N(Nc3ccccc3)C3=C2C(=O)CC(C)(C)C3)cc1C (stereo not shown),-1.35%
3,O=C(CN1C(=O)NC2(CCCCC2)C1=O)Nc1ccccc1N1CCCCC1,-46.6%
4,Cc1c(Cl)c([N+](=O)[O-])nn1CCCC(=O)N(Cc1ccccc1)Cc1ccccc1,-28.7%
5,CCCC(=O)N1CCN(S(=O)(=O)c2cc(Cl)ccc2OC)CC1,-12.5%
6,CC(C)(C)C(=O)N1CCN(c2ccnc3cc(Cl)ccc23)CC1,-73.9%
7,COc1ccc(S(=O)(=O)NCCC(=O)NCc2cccs2)cc1,-0.129%
8,Cc1c(OCC(=O)N2CCN(c3ccccc3)CC2)ccc2c3c(c(=O)oc12)CCCC3,19.5%
9,CC[C@H](C)[C@H](NC(N)=O)C(=O)Nc1ccc2c(c1)OCO2,16.1%
10,O=C(NCC1CCCN(C(=O)Cc2ccccc2Cl)C1)c1ccc(F)cc1 (stereo not shown),-12.8%
11,NC(=O)C1CCN(c2nc(C3CC3)nc3c2nnn3Cc2ccccc2)CC1,-21.2%
12,Cc1c(NC(=O)Nc2ccc(C(C)(C)C)cc2)c(=O)n(-c2ccccc2)n1C,21%
13,COc1ccc(-n2nc3c(N4CCC(C(=O)N5CCC(C)CC5)CC4)nnc(C)c3c2C)cc1,-46.3%
14,CC(=O)Nc1ccc(OCCC[n+]2ccccc2)cc1.[Cl-],40.4%
15,Clc1ccc2nnc(Cl)n2n1,18.8%
16,O=C(CSc1nc2c(c(=O)[nH]1)CCC2)Nc1ccc(F)cc1,14%
17,CN(CC(=O)Nn1cnnc1)S(=O)(=O)c1ccccc1,17%
18,Cc1c(CCC(=O)O)c(=O)oc2c(C)c(OCc3cc4c(cc3Cl)OCO4)ccc12,8.28%
19,CCCC(=O)C1=C(O)C(C(=O)OC)C(C)(C)CC1=Nc1cccc([N+](=O)[O-])c1 (stereo not shown),-4.48%
20,COc1ccc(NC(=O)C2CCN(S(=O)(=O)c3cccc4cccnc34)CC2)cc1OC,9.47%
21,CCOc1ccc(OCC)c(NC(=O)C2CCN(S(=O)(=O)c3cccnc3)CC2)c1,-29.9%
22,O=C(c1ccc2c(=O)n(CCc3ccccc3)c(=O)[nH]c2c1)N1CCN(c2ccccc2)CC1,7.84%

row,Compound,"hERG current change (%, negative = inhibition) at 10uM"
1,Cc1ccc(/C=N/NC(=O)c2ccoc2C)o1,11.9%
2,CC(=O)Nc1cccc(C(=O)NNC(=O)c2n[nH]c(=O)c3ccccc23)c1,-9.25%
3,NC(=O)COC(=O)CSc1ccc2ccccc2c1,-6.46%
4,COc1cc(OC)cc(C(=O)NCCCCCCNC(=O)c2cc(OC)cc(OC)c2)c1,-2.76%
5,O=C(CN1C(=O)C2CC=CCC2C1=O)Nc1ccc(S(=O)(=O)Nc2ncccn2)cc1 (stereo not shown),7.99%
6,CCc1c(C)nc2c(-c3ccccc3)c(C)[nH]n2c1=O,23.4%
7,CCCCn1c(-c2csc3c2CCCC3)n[nH]c1=S,1.64%
8,Cc1ccc(C(=O)N2NC(c3ccc(F)cc3)C3C(=O)N(c4ccc(C)c(C)c4)C(=O)C32)cc1 (stereo not shown),8.74%
9,CCCSC1=N/C(=C/c2ccsc2)C(=O)N1c1ccccc1,16.5%
10,S=c1[nH]nc(-c2ccc(Cl)cc2)n1CC1CCCO1 (stereo not shown),14.8%
11,O=C(Cn1nc(-c2ccco2)ccc1=O)Nc1ccc(Cl)c(Cl)c1,13.6%
12,Cc1ccccc1NC(=O)CCS(=O)(=O)c1ccc(Br)s1,24.3%
13,O=C1NCCCCC1NC1CC(=O)N(c2ccccc2)C1=O (stereo not shown),4.68%
14,Cc1ccc(S(=O)(=O)CC(=O)NCc2ccc(Cl)cc2)cc1,-3.37%
15,COc1ccccc1N1CCN(C(=O)CSc2nnc(NC(=O)C(C)C)s2)CC1,2.66%
16,CCN(CC(=O)Nc1ccc(N2CCOCC2)cc1)C(=O)c1ccc(C(F)(F)F)cc1,-5.99%
17,Clc1ccc(C(c2nnnn2CCc2ccccc2)N2CCSCC2)cc1 (stereo not shown),0.814%
18,CCC(C)(C)n1nnnc1C(C(C)C)N1CCN(C(=O)c2ccco2)CC1 (stereo not shown),-29.7%
19,COc1ccc(C(=O)Nc2ccnn2C2CCN(C(=O)C3CCOC3)CC2)cc1 (stereo not shown),17.9%
20,CCCC(=O)Nc1nnc(SCC(=O)Nc2ccc3c(c2)OCCO3)s1,15.4%
21,O=C(Nc1c(F)cc(F)cc1Br)C1CCCO1 (stereo not shown),5.42%
22,Cc1cc(C)nc(NN=C2CCCC2)n1,10.3%

row,Compound,"hERG current change (%, negative = inhibition) at 10uM"
1,COc1ccc(C(=O)COc2ccc(NC(C)=O)cc2)cc1,9.72%
2,O=S(=O)(Nc1cccc(-c2ccc3nncn3n2)c1)c1cc(F)ccc1F,0.23%
3,CN(/N=C/c1ccncc1)c1cnn(-c2ccc(F)c(Cl)c2)c(=O)c1Cl,-35.3%
4,CSc1nnc(-c2ccccc2)c(=O)[nH]1,13.9%
5,Cc1ccc(O)c(-c2cc(C(=O)NCc3ccncc3)[nH]n2)c1,9.85%
6,COc1cc2c(C(=O)N3CCOCC3)c(CSc3ccccc3)n(C)c2cc1Br,-6.35%
7,COc1ccc(C(=O)/C=C/C(=O)N(CC(=O)NC2CCCCC2)Cc2cccs2)c(O)c1,-8.34%
8,CCOC(=O)N/N=C(\C)c1cccs1,20.2%
9,COc1ccc2cc(C(N)=O)c(=Nc3ccccc3)oc2c1,6.28%
10,O=C(NNC(=O)C1CCCO1)c1ccccc1Cl (stereo not shown),-3.68%
11,O=C(CCC(=O)N/N=C/c1ccccc1O)NCc1ccccc1,5.19%
12,CCc1nc2ccc(C(=O)Nc3nnc(C)s3)cc2nc1CC,17%
13,Fc1ccc(Br)cc1SCCc1ccncc1,-11.9%
14,Cc1ccc(C)c(NC(=O)CSc2nnc(-c3ccccc3)o2)c1,-5.06%
15,COc1ccccc1OCC(=O)NNC(=O)c1ccoc1C,39.4%
16,COc1ccc(OC)c(-c2csc(NC(=O)C3COc4ccccc4O3)n2)c1 (stereo not shown),21%
17,COCCOC(=O)C1=C(C)N=C2SCCC(=O)N2C1c1cccc(Br)c1 (stereo not shown),-11.4%
18,COc1ccc(OCC(Cn2cnc3ccccc32)OC(C)=O)cc1.Cl (stereo not shown),-26%
19,COc1ccc(CCNC(=O)C2CCN(S(=O)(=O)c3ccc(F)cc3)CC2)cc1,0.507%
20,Cn1c(SCC(=O)NC2CCCC2)nnc1-c1ccc(S(=O)(=O)N2CCOCC2)cc1,-0.488%
21,CC(OC(=O)c1cccs1)C(=O)NC1CCCCC1C (stereo not shown),-66.7%
22,CN(C)CCN(CC1CCCN(Cc2ccccc2F)C1)C(=O)c1ccc(F)cc1 (stereo not shown),3.46%

row,Compound,"hERG current change (%, negative = inhibition) at 10uM"
1,Cc1ccc(CSCC(=O)Nc2ccccc2)cc1,12.4%
2,Cc1c(Br)cnn1C(C)C(=O)N1CCN(c2ccccc2F)CC1 (stereo not shown),-38.3%
3,O=C(CN1C(=O)CCC1=O)Nc1nc(-c2ccc(Oc3ccccc3)cc2)cs1,-7.31%
4,Cc1cc[n+](-c2[nH]c(=O)sc2/C=N/NC([S-])=Nc2ccccc2)cc1C,-0.725%
5,O=C(COC(=O)C1CCCCC1C(=O)N1CCc2ccccc21)NCc1ccco1 (stereo not shown),-21.3%
6,COC(=O)[C@@H](NC(=O)N(C1CCCCC1)C1CCCCC1)C(C)C,-7.86%
7,N#C/C(=N/Nc1ccccc1F)C(=N)N1CCOCC1,9.62%
8,CCC(C)(C(=O)NC1CCCCC1)N(C(=O)c1ccccn1)c1ccccc1 (stereo not shown),-44.8%
9,Cc1c(C)n(CCCN(C)C)c2ncnc(NCc3ccccc3)c12,-13.9%
10,COc1cccc(C(=O)NNC2OC(CO)C(O)C2O)c1 (stereo not shown),22.3%
11,O=C(NC(Cc1ccccc1)C(=O)O)/C(=C\c1cccc([N+](=O)[O-])c1)NC(=O)c1ccco1 (stereo not shown),28.4%
12,O=C(COc1cccnc1[N+](=O)[O-])N1N=C(c2ccc(Cl)cc2)CC1c1ccco1 (stereo not shown),16.9%
13,COc1ccc(C(C)=O)cc1CN1C(=O)C(C)N(c2ccc(C)cc2)C1=O (stereo not shown),-25.4%
14,Cc1cc(C)nc(N2CCCC(C(=O)Nc3cccc(Cl)c3)C2)n1 (stereo not shown),17.3%
15,Cn1c(SCC(=O)N2CCN(c3cccc(Cl)c3)CC2)nnc1-c1ccncc1,-55.9%
16,Cc1cc(SCC(=O)c2cccs2)nc2c(C)cccc12,0.476%
17,COc1ccc(C(=O)NNC(=O)C(NC(=O)c2ccccc2NC(=O)c2ccco2)C(C)C)cc1 (stereo not shown),-32.3%
18,O=C(Nc1ncccn1)c1ccc([N+](=O)[O-])cc1[N+](=O)[O-],-7.61%
19,NS(=O)(=O)c1ccc(NC(=O)COC(=O)C2(c3ccccc3F)CCCC2)cc1,6.61%
20,CN=C(Nc1cc(C)nn1CCC#N)c1ccc(F)cc1,6.14%
21,O=C(c1ccc(F)cc1)N1CCN(c2cc(N3CCCCC3)c(F)cc2[N+](=O)[O-])CC1,-24.6%
22,Brc1cc(/C=N/n2cnnc2)oc1Br,1.7%
